Test results from article PMC11109945.
Positions count from the first letter of the chain named. Results are given in words; binding and its absence hold for the method and conditions named. For part of these data: In cells and extracts the contact can be indirect. Some binding calls cover weakened binding; strength is not graded here. Tags and fused reporters may be left off the sequences shown. Values belong to the molecule of their own block, whether it stands above or below them.

The chains behind the UniProt entries cited, without tags or fusion partners. Where a name states a change or a piece, a line headed by the entry shows the natural chain unless it says otherwise. A line that says so, or that is headed by a name, gives the form on record, which may keep a tag or linker.
UniProt Q04206: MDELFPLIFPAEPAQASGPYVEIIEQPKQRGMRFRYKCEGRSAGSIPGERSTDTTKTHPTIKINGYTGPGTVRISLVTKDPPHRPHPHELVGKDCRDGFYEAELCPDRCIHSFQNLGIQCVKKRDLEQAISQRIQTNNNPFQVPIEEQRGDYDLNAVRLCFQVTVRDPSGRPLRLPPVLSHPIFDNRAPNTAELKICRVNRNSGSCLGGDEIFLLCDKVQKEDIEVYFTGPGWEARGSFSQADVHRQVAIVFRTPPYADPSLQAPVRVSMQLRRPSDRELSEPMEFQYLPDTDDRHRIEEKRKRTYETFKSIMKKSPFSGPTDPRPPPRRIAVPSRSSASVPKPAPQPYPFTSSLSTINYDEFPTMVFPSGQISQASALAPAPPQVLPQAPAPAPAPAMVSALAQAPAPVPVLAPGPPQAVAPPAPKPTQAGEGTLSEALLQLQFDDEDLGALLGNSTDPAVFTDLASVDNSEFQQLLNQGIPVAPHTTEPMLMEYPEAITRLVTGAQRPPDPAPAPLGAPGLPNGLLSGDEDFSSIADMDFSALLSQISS
T7-RelA-K314/315R (Q04206, form named): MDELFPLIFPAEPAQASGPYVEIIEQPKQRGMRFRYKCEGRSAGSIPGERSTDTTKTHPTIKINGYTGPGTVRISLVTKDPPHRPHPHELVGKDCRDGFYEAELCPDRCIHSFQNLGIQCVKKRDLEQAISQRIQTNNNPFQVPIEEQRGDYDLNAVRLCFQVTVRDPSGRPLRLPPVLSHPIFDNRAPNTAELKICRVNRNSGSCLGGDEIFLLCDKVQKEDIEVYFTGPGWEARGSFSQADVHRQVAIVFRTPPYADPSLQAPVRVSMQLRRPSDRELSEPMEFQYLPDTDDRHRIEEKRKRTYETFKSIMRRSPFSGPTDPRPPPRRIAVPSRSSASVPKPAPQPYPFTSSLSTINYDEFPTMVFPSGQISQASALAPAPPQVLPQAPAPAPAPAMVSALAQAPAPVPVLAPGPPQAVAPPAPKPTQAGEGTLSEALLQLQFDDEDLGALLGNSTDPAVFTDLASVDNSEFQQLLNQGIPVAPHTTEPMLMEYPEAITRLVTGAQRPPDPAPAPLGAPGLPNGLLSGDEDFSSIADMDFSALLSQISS

Assays:
[1] = target: T1, GST-WSB2 (full-length) (human) (UniProt Q9NYS7); test: pull-down; 1 ug beads-bound GST fusion protein and 50 ul HEK293T whole cell lysate in 500 ul lysis buffer, rotation at 4°C for 1 h; immunoblot with anti-T7; only the target purified
T1 sequence: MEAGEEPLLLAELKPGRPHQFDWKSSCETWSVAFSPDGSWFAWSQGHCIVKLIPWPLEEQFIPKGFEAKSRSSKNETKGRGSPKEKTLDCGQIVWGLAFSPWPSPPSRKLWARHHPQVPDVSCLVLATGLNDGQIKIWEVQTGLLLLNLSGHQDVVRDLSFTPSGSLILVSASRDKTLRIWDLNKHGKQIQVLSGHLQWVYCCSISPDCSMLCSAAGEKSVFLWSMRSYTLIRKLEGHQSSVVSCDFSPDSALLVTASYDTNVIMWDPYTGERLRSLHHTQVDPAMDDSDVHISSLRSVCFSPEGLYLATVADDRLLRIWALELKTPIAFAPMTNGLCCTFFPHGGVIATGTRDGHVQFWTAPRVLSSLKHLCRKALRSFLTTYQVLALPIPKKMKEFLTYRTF

[2] = target: T2, GST-WSB1 (full-length) (human) (UniProt Q9Y6I7); test: as above
T2 sequence: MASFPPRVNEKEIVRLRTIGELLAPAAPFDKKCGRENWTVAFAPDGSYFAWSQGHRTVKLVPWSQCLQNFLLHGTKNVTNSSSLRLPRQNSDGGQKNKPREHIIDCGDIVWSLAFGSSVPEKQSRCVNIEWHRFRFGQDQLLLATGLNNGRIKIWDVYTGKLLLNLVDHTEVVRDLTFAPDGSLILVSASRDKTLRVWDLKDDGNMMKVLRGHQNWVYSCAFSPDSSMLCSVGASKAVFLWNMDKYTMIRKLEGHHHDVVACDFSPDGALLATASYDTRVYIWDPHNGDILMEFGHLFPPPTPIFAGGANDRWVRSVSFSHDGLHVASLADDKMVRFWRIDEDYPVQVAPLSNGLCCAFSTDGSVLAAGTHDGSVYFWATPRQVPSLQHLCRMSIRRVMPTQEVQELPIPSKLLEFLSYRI

GST-WSB2-E28A (human) = target: T3, GST-WSB2-E28A (human) (UniProt Q9NYS7); test: as above
T3 sequence: T1 sequence with E28A

[3] = target: T1, GST-WSB2 (full-length) (human); test: pull-down; as a1, with 100-fold molar excess of RelA peptide added before pull-down (peptide competition); the pair that is blocked; only the target purified
[4] = target: T2, GST-WSB1 (full-length) (human); test: as above
[5] = target: T1, GST-WSB2 (full-length) (human); test: pull-down; peptide competition: 100-fold molar excess of synthetic RelA peptide against T7-RelA of the lysate for beads-bound GST-WSB1 or GST-WSB2; peptide and GST fusion; both purified
[6] = target: T2, GST-WSB1 (full-length) (human); test: as above

- binding [1]: no binding
- binding [2]: no binding
Molecule: T7-RelA-K314/315R (from UniProt Q04206 1-551)

- binding [1]: binds
- binding (GST-WSB2-E28A (human)): binds
- binding [2]: binds
- binding [3]: binds
- binding [4]: binds
Molecule: T7-tagged WT RelA, K314/315-methylated by co-transfected Flag-Set9 (from UniProt Q04206 1-551)

- binding [5]: binds
- binding [6]: binds
B1: K314/315 monomethylated RelA peptide KSIMK[me1]K[me1]SPFS (competition assay) (peptide)
peptide: KSIMKKSPFS
modifications: monomethyl-lysine at K314 and K315 (K[me1]K[me1])
